# Experimental data published in the supplement of paper PMC12355420.
# Counter-ions that a name gives are not always drawn. This is one part of the list. No stated cut-off is given here; in the data, active = 0.5 or less and inactive = the rest. Single values are uncertain, as repeats are few or missing.
# Columns and labels:
# Details in all cases: 50 µM; 24 h
# [1] = test system: HeLa VPS33A reporter cells; test: relative cell viability (CellMask signal) vs DMSO (fraction of DMSO); higher = less cytotoxic;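 further: primary screen of an FDA-approved drug library in HeLa reporter cells in 96-well format, CellMask signal normalized to DMSO-treated wells set as 1, under 0.5 deemed highly cytotoxic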
# [2] = test system: HeLa VPS33A R498W KI + HA-SDC1-FLAG; test: relative GAG core protein HA-SDC1 amount per cell number vs DMSO (fraction of DMSO); higher = more SDC1 (GAG core protein);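 further: HA-SDC1 level read out by In-Cell Western staining with an anti-HA antibody against the N-terminal tag, screening FDA-approved library drugs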
# [3] = test system: HeLa VPS33A KO + NLuc-VPS33A R498W; test: relative mutant VPS33A R498W amount (NanoLuc luminescence) vs DMSO (fraction of DMSO); HeLa model of a glycosaminoglycan (GAG) storage disease; KI is knock-in and KO knock-out; SDC1 is syndecan 1; higher = higher mutant VPS33A level;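 further: screen of an FDA-approved drug library, NanoLuc luminescence read after lysing the treated cells, taken as a measure of mutant VPS33A protein stability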
Compound,relative cell viability [1],relative GAG core protein HA-SDC1 amount per cell number [2],relative mutant VPS33A R498W amount [3]
C[N+]1(C)CCC(OC(=O)C(O)(c2ccccc2)C2CCCC2)C1 (configuration not stated) [Glycopyrrolate],1.27,inactive: 1.43,0.932
OCC1(O)OC[C@@H](O)[C@@H](O)[C@@H]1O (stereo partly drawn) [D-(-)-Fructose],0.998,inactive: 0.914,1.41
C[C@@H]1O[C@@H](O[C@@H]2[C@@H](O)[C@H](OCCc3ccc(O)c(O)c3)O[C@H](CO[C@@H]3O[C@H](CO)[C@@H](O)[C@H](O)[C@H]3O)[C@H]2OC(=O)/C=C/c2ccc(O)c(O)c2)[C@H](O)[C@H](O)[C@H]1O [Echinacoside],0.965,inactive: 0.682,1.28
N[C@@H](CO)C(=O)O,0.904,inactive: 1.37,1.12
COc1ncnc(NS(=O)(=O)c2ccc(N)cc2)c1OC [Sulfadoxin],1.09,inactive: 0.66,1.03
CCOC(=O)[C@H](CCc1ccccc1)N[C@H]1CS[C@H](c2cccs2)CN(CC(=O)O)C1=O [Temocapril HCl],0.957,inactive: 0.89,1.49
OC[C@H]1O[C@H](OC[C@H]2O[C@H](O[C@]3(CO)O[C@H](CO)[C@@H](O)[C@@H]3O)[C@H](O)[C@@H](O)[C@@H]2O)[C@H](O)[C@@H](O)[C@H]1O [D-(+)-Raffinose (hydrate)],1.16,inactive: 0.697,1.24
CCOC(=O)C(C)(C)Oc1ccc(Cl)cc1 [Clofibrate],0.996,inactive: 0.863,0.991
"O=C1CN(/N=C/c2ccc(-c3ccc([N+](=O)[O-])cc3)o2)C(=O)N1 [Dantrolene, sodium salt]",1.15,inactive: 0.822,6.37
CN(C)CCC(c1ccc(Cl)cc1)c1ccccn1 (configuration not stated) [Chlorpheniramine Maleate],1.12,inactive: 1.34,1.15
CC1CNc2c(cccc2S(=O)(=O)N[C@@H](CCCNC(=N)N)C(=O)N2CC[C@@H](C)C[C@@H]2C(=O)O)C1 (some centres not stated) [Argatroban],1.38,inactive: 1.41,0.936
CC(COc1ccccc1)NC(C)C(O)c1ccc(O)cc1 (configuration not stated) [Isoxsuprine (hydrochloride)],0.981,inactive: 0.755,1.55
COc1ccc2cc(CCC(C)=O)ccc2c1 [Nabumetone],1.02,inactive: 0.818,1.08
O=Cc1ccc(CO)o1 [5-hydroxymethyl-2-furaldehyde],0.992,inactive: 0.87,1.32
O=C(Nc1ccccc1)c1ccccc1O [Salicylanilide],0.928,inactive: 0.551,0.522
COc1c(C)c2c(c(O)c1C/C=C(\C)CCC(=O)OCCN1CCOCC1)C(=O)OC2 [Mycophenolate Mofetil],0.971,inactive: 1.16,1.56
Cc1ccc(S(=O)(=O)NC(=O)NN2CCCCCC2)cc1 [Tolazamide],1.01,inactive: 0.769,1.18
CCCCC1=NC2(CCCC2)C(=O)N1Cc1ccc(-c2ccccc2-c2nnn[nH]2)cc1 [Irbesartan],0.962,inactive: 0.926,1.08
CCOC(=O)[C@H](CCc1ccccc1)N[C@@H](C)C(=O)N1Cc2ccccc2C[C@H]1C(=O)O [Quinapril HCl],0.986,inactive: 0.812,1.44
CC(C)c1ccc2oc3nc(N)c(C(=O)O)cc3c(=O)c2c1 [Amlexanox],1.08,inactive: 0.767,0.931

Compound,relative cell viability [1],relative GAG core protein HA-SDC1 amount per cell number [2],relative mutant VPS33A R498W amount [3]
CN[C@@H]1[C@H](O)[C@H](NC)[C@H]2O[C@@]3(O)C(=O)C[C@@H](C)O[C@H]3O[C@@H]2[C@H]1O [Spectinomycin dihydrochloride],1.04,inactive: 0.955,0.98
c1cnc2cc3c(cc2n1)[C@@H]1CNC[C@H]3C1 [Varenicline Tartrate],0.961,inactive: 1.23,1.35
CN(C)c1nc(N(C)C)nc(N(C)C)n1 [Altretamine],1.3,inactive: 1.56,1.31
CC[N+](C)(C)c1cccc(O)c1 [Edrophonium (chloride)],0.998,inactive: 0.817,1.4
Cn1ccnc1S [Methimazole],1.15,inactive: 1.15,0.895
CCCC(=O)Nc1ccc(OCC(O)CNC(C)C)c(C(C)=O)c1 (configuration not stated) [Acebutolol HCl],1.23,inactive: 0.774,0.938
CCCN[C@H]1CCc2nc(N)sc2C1 [Pramipexole 2HCl Monohydrate],1.15,inactive: 1.29,1.53
CN1CCc2nc(C(=O)N[C@@H]3C[C@@H](C(=O)N(C)C)CC[C@@H]3NC(=O)C(=O)Nc3ccc(Cl)cn3)sc2C1 [Edoxaban],1.29,inactive: 0.847,1.27
CCN(CC)CCOCCOC(=O)C1(c2ccccc2)CCCC1 [Pentoxyverine Citrate],0.86,inactive: 0.895,0.866
C[C@]12CC[C@@H]3c4ccc(O)cc4CC[C@H]3[C@@H]1CC[C@@H]2O [Estradiol],0.851,active: 0.404,0.444
CC(C)NCC(O)COc1ccc(CCOCC2CC2)cc1 (configuration not stated) [Betaxolol HCl],1.24,inactive: 0.918,1.26
CN/C(=N\CCSCc1nc[nH]c1C)NC#N [Cimetidine],1.18,inactive: 1.3,1.52
Cc1ccc(-n2nc(C(C)(C)C)cc2NC(=O)Nc2ccc(OCCN3CCOCC3)c3ccccc23)cc1 [BIRB 796 (Doramapimod)],0.961,inactive: 0.685,0.236
CCc1oc2ccccc2c1C(=O)c1cc(Br)c(O)c(Br)c1 [Benzbromarone],0.904,active: 0.351,1.15
CC(=O)CCC(=O)O [Levulinic acid],1.06,inactive: 1.02,1.18
Cn1ncnc1[C@H]1c2n[nH]c(=O)c3cc(F)cc(c23)N[C@@H]1c1ccc(F)cc1,1.13,inactive: 0.889,0.588
COC(=O)N[C@H](C(=O)N[C@@H](Cc1ccccc1)[C@@H](O)CN(Cc1ccc(-c2ccccn2)cc1)NC(=O)[C@@H](NC(=O)OC)C(C)(C)C)C(C)(C)C [Atazanavir],1.26,inactive: 0.719,0.657
CN1CCC(=C2c3ccccc3CC(=O)c3sccc32)CC1 [Ketotifen Fumarate],1.12,inactive: 0.929,0.889
OCC1=C[C@@H](O)[C@@H]2C=CO[C@@H](O[C@@H]3O[C@H](CO)[C@@H](O)[C@H](O)[C@H]3O)[C@H]12 [Aucubin],0.96,inactive: 0.752,1.28
CC(S)C(=O)NCC(=O)O (configuration not stated) [Tiopronin (Thiola)],1.46,inactive: 0.769,0.909

Compound,relative cell viability [1],relative GAG core protein HA-SDC1 amount per cell number [2],relative mutant VPS33A R498W amount [3]
CC(C)(CO)C(O)C(=O)NCCC(=O)O [Calcium D-Panthotenate],1.14,inactive: 0.959,1.33
CCOc1ccccc1OC(c1ccccc1)C1CNCCO1 (configuration not stated) [Reboxetine mesylate],0.954,inactive: 0.755,0.733
CCCCCOC(=O)Nc1nc(=O)n([C@@H]2O[C@H](C)[C@@H](O)[C@H]2O)cc1F [Capecitabine],1.32,inactive: 0.962,0.913
NCCc1c[nH]cn1 [histamine],1.05,inactive: 1.06,1.49
Cc1cc(=O)[nH]c(=S)[nH]1 [Methylthiouracil],0.969,inactive: 0.872,1.13
O=S(=O)(O)c1cc(O)ccc1O [Ethamsylate],0.811,inactive: 0.916,1.36
OC[C@H]1OC(O)[C@H](O)[C@@H](O)[C@@H]1O (stereo partly drawn) [Dextrose (D-glucose)],1.34,inactive: 1,0.885
CN(C)CCCN1c2ccccc2Sc2ccc(Cl)cc21 [Chlorpromazine HCl],0.701,active: 0.324,0.278
N[C@@H](Cc1cc(I)c(Oc2ccc(O)c(I)c2)c(I)c1)C(=O)O [Liothyronine Sodium],0.872,inactive: 0.653,0.688
CC(C)Cc1ccc(C(C)C(=O)O)cc1 (configuration not stated) [Ibuprofen Lysine],0.956,inactive: 1.49,1.26
COc1cc2c(cc1Cc1cccc(Cl)c1F)c(=O)c(C(=O)O)cn2[C@H](CO)C(C)C [Elvitegravir (GS-9137)],0.994,active: 0.435,1.22
CC(=O)OCC(=O)[C@@]1(O)[C@H](C)C[C@H]2[C@@H]3CCC4=CC(=O)C=C[C@]4(C)[C@@]3(F)[C@@H](O)C[C@@]21C [Dexamethasone acetate],1.08,inactive: 0.96,1.01
NCCC(O)(P(=O)(O)O)P(=O)(O)O [Pamidronate Disodium],1.36,inactive: 0.888,1.04
C[N+]1(C)CCC(=C(c2ccccc2)c2ccccc2)CC1 [Diphemanil Methylsulfate],1.23,inactive: 0.813,0.529
CN(C)CCC=C1c2ccccc2CCc2ccccc21 [Amitriptyline HCl],0.761,active: 0.317,0.834
CC(C(=O)O)c1ccc2c(c1)Cc1cccnc1O2 (configuration not stated) [Pranoprofen],1.04,inactive: 0.899,1.14
Cn1c(=O)cc(N2CCC[C@@H](N)C2)n(Cc2ccccc2C#N)c1=O [Alogliptin (SYR-322)],1.27,inactive: 0.837,0.916
CN(C/C=C/c1ccccc1)Cc1cccc2ccccc12 [Naftifine HCl],1.07,inactive: 0.586,0.404
CO/N=C(\C(=O)N[C@@H]1C(=O)N2C(C(=O)O)=C(CSc3nc(=O)c(O)nn3C)CS[C@H]12)c1csc(N)n1 [Ceftriaxone Sodium Trihydrate],1.04,inactive: 1.03,1.23
